# This is one part of the list.
# B1: LEA (Lycopersicon esculentum) (protein)
# chain: NEVFDVPMNETIGVESINASVGGYPRCGAQGDGGNCPSGMCCSVWGWCGKTYGYCAPQNCQKQCPAPYPEGRCGWQADGKSCPNGKCCSYGGWCGTTSDYCARQNCQKQCILPSPPPPPPPPPGFPRPECGLQKNGERCTKPGECCSIWGLCGATYKYCDPQHCQKQCSAPFPPGRCGWQADGRPCPTGQCCSFSGWCGTTSAHCTYPQCVSQCNDPRFPSSLNNRIQSFML
# Tests used:
# Assay in all cases: glycan array binding signal (z-score within array); higher = stronger binding
# Conditions in all cases: glycan notation: IUPAC condensed, linker removed
# [1] = biological target: Neu5Ac(a2-3)Gal(b1-4)GlcNAc(b1-3)Gal(b1-4)[Fuc(a1-3)]GlcNAc
# Method in brief: (§1)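 From the Consortium for Functional Glycomics database, 3228 arrays were curated, keeping only those whose protein sequence was available. Binding is given as a within-array Z-score averaged across arrays sharing a protein sequence and across linkers. Negative Z-scores can be read as non-binding.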
# [2] = biological target: Neu5Ac(a2-3)Gal(b1-4)GlcNAc(b1-6)[Gal(b1-3)]GalNAc
# Method in brief: as §1
# [3] = biological target: Neu5Ac(a2-3)Gal(b1-4)GlcNAc6S
# Method in brief: as §1
# [4] = biological target: Neu5Ac(a2-3)Gal(b1-4)[Fuc(a1-3)]GlcNAc
# Method in brief: as §1
# [5] = biological target: Neu5Ac(a2-3)Gal(b1-4)[Fuc(a1-3)]GlcNAc(b1-3)Gal
# Method in brief: as §1
# [6] = biological target: Neu5Ac(a2-3)Gal(b1-4)[Fuc(a1-3)]GlcNAc(b1-3)Gal(b1-4)GlcNAc
# Method in brief: as §1
# [7] = biological target: Neu5Ac(a2-3)Gal(b1-4)[Fuc(a1-3)]GlcNAc(b1-3)Gal(b1-4)[Fuc(a1-3)]GlcNAc(b1-3)Gal(b1-4)[Fuc(a1-3)]GlcNAc
# Method in brief: as §1
# [8] = biological target: Neu5Ac(a2-3)Gal(b1-4)[Fuc(a1-3)]GlcNAc6S
# Method in brief: as §1
# [9] = biological target: Neu5Ac(a2-3)Gal6S(b1-4)GlcNAc
# Method in brief: as §1
# [10] = biological target: Neu5Ac(a2-3)Gal6S(b1-4)[Fuc(a1-3)]GlcNAc
# Method in brief: as §1
# Neu5Ac(a2-3)GalNAc = biological target: Neu5Ac(a2-3)GalNAc
# Method in brief: as §1
# [11] = biological target: Neu5Ac(a2-3)GalNAc(b1-4)GlcNAc
# Method in brief: as §1
# [12] = biological target: Neu5Ac(a2-3)[GalNAc(b1-4)]Gal(b1-4)Glc
# Method in brief: as §1
# [13] = biological target: Neu5Ac(a2-3)[GalNAc(b1-4)]Gal(b1-4)GlcNAc
# Method in brief: as §1
# [14] = biological target: Neu5Ac(a2-3)[Neu5Ac(a2-6)]GalNAc
# Method in brief: as §1
# [15] = biological target: Neu5Ac(a2-6)Gal(b1-4)GlcNAc
# Method in brief: as §1
# [16] = biological target: Neu5Ac(a2-6)Gal(b1-4)GlcNAc(b1-2)Man(a1-3)[Neu5Ac(a2-6)Gal(b1-4)GlcNAc(b1-2)Man(a1-6)]Man(b1-4)GlcNAc(b1-4)GlcNAc
# Method in brief: as §1
# [17] = biological target: Neu5Ac(a2-6)Gal(b1-4)GlcNAc(b1-3)Gal(b1-4)GlcNAc
# Method in brief: as §1
# [18] = biological target: Neu5Ac(a2-6)Gal(b1-4)GlcNAc(b1-3)Gal(b1-4)[Fuc(a1-3)]GlcNAc(b1-3)Gal(b1-4)[Fuc(a1-3)]GlcNAc
# Method in brief: as §1
# [19] = biological target: Neu5Ac(a2-6)Gal(b1-4)GlcNAc6S
# Method in brief: as §1
# Neu5Ac(a2-6)GalNAc = biological target: Neu5Ac(a2-6)GalNAc
# Method in brief: as §1
# [20] = biological target: Neu5Ac(a2-6)GalNAc(b1-4)GlcNAc
# Method in brief: as §1
# Neu5Ac(a2-8)Neu5Ac = biological target: Neu5Ac(a2-8)Neu5Ac
# Method in brief: as §1
# [21] = biological target: Neu5Ac(a2-8)Neu5Ac(a2-3)Gal(b1-4)Glc
# Method in brief: as §1
# [22] = biological target: Neu5Ac(a2-8)Neu5Ac(a2-3)[GalNAc(b1-4)]Gal(b1-4)Glc
# Method in brief: as §1
# [23] = biological target: Neu5Ac(a2-8)Neu5Ac(a2-8)Neu5Ac
# Method in brief: as §1
# [24] = biological target: Neu5Ac(a2-8)Neu5Ac(a2-8)Neu5Ac(a2-3)Gal(b1-4)Glc
# Method in brief: as §1
# [25] = biological target: Neu5Ac(a2-8)Neu5Ac(a2-8)Neu5Ac(a2-3)[GalNAc(b1-4)]Gal(b1-4)Glc
# Method in brief: as §1
# [26] = biological target: Neu5Ac(a2-8)Neu5Ac(a2-8)Neu5Ac(a2-8)Neu5Ac(a2-3)[GalNAc(b1-4)]Gal(b1-4)Glc
# Method in brief: as §1
# [27] = biological target: Neu5Ac9Ac(a2-6)Gal(b1-4)GlcNAc
# Method in brief: as §1
# [28] = biological target: Neu5Gc(a2-3)Gal(b1-3)GlcNAc
# Method in brief: as §1
# [29] = biological target: Neu5Gc(a2-3)Gal(b1-3)[Fuc(a1-4)]GlcNAc
# Method in brief: as §1
# Neu5Gc(a2-3)Gal(b1-4)Glc = biological target: Neu5Gc(a2-3)Gal(b1-4)Glc
# Method in brief: as §1
# [30] = biological target: Neu5Gc(a2-3)Gal(b1-4)GlcNAc
# Method in brief: as §1
# [31] = biological target: Neu5Gc(a2-3)Gal(b1-4)[Fuc(a1-4)]GlcNAc
# Method in brief: as §1
# [32] = biological target: Neu5Gc(a2-6)Gal(b1-4)GlcNAc
# Method in brief: as §1
# Neu5Gc(a2-6)GalNAc = biological target: Neu5Gc(a2-6)GalNAc
# Method in brief: as §1
binder,measurement,setting,value
B1,glycan array binding signal (z-score),[1],-0.542
same,glycan array binding signal (z-score),[2],-0.523
same,glycan array binding signal (z-score),[3],1.72
same,glycan array binding signal (z-score),[4],0.885
same,glycan array binding signal (z-score),[5],-0.553
same,glycan array binding signal (z-score),[6],1.81
same,glycan array binding signal (z-score),[7],-0.54
same,glycan array binding signal (z-score),[8],-0.509
same,glycan array binding signal (z-score),[9],-0.537
same,glycan array binding signal (z-score),[10],-0.553
same,glycan array binding signal (z-score),Neu5Ac(a2-3)GalNAc,-0.476
same,glycan array binding signal (z-score),[11],1.42
same,glycan array binding signal (z-score),[12],-0.536
same,glycan array binding signal (z-score),[13],1.75
same,glycan array binding signal (z-score),[14],-0.558
same,glycan array binding signal (z-score),[15],-0.556
same,glycan array binding signal (z-score),[16],-0.502
same,glycan array binding signal (z-score),[17],1.84
same,glycan array binding signal (z-score),[18],-0.529
same,glycan array binding signal (z-score),[19],-0.533
same,glycan array binding signal (z-score),Neu5Ac(a2-6)GalNAc,-0.565
same,glycan array binding signal (z-score),[20],-0.513
same,glycan array binding signal (z-score),Neu5Ac(a2-8)Neu5Ac,-0.559
same,glycan array binding signal (z-score),[21],-0.541
same,glycan array binding signal (z-score),[22],-0.525
same,glycan array binding signal (z-score),[23],-0.477
same,glycan array binding signal (z-score),[24],-0.559
same,glycan array binding signal (z-score),[25],-0.545
same,glycan array binding signal (z-score),[26],-0.554
same,glycan array binding signal (z-score),[27],-0.54
same,glycan array binding signal (z-score),[28],-0.558
same,glycan array binding signal (z-score),[29],-0.548
same,glycan array binding signal (z-score),Neu5Gc(a2-3)Gal(b1-4)Glc,-0.122
same,glycan array binding signal (z-score),[30],1.61
same,glycan array binding signal (z-score),[31],-0.041
same,glycan array binding signal (z-score),[32],-0.558
same,glycan array binding signal (z-score),Neu5Gc(a2-6)GalNAc,-0.545

# Reference: the supplement of paper PMC8728848
